# Results as given in PubChem BioAssay AID1347417 (National Center for Advancing Translational Sciences (NCATS), 2020).
# The whole screen tested about 120,000 compounds, of which about 5,300 (4.4%) were called active. The inconclusive results got no clear call from the source; some entries with a clear call stand among them for comparison. Calls come from the whole dose curve; as a rule, active = well fitted inhibition curve with a large enough effect; inconclusive = small, poorly fitted or top-dose-only effect; inactive = no such curve, though single readings can be large or run the other way. A potency beside an inconclusive call is a rough fit, not a confirmed value.
# Test: qHTS Primary assay for Inhibitors of Plasmodium falciparum Dd2 growth in vitro; note: nearly all actives have a fitted effect of over 65% in size;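 for activity, negative = inhibition: plate controls were DMSO vehicle for no effect and reference drug for full effect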
# Settings: P. falciparum Dd2 growth, SYBR Green, 72 h; activity, negative = inhibition: at 28.9 µM (top of the series) unless noted; series mostly up to 28.9 µM
# Procedure, shortened: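 Infected erythrocytes (Dd2, 0.3% parasitemia, 2.5% hematocrit final) are added to compound in RPMI-1640/Albumax II medium, grown 72 h at 37C in low oxygen, then lysed with saponin/Triton-X containing SYBR Green and read by fluorescence.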
# Potency is the fitted concentration of half-maximal effect; tags give direction and shape of the fitted curve.
Compound,Potency,"activity, negative = inhibition",outcome
COc1ncccc1-c1cc2c(ccn2C(C)C)c(C(=O)NCc2c(C)cc(C)[nH]c2=O)n1,"inconclusive: 11.2 µM [inhibitor, single point]",,
CN1C(=O)CCCCC1C(=O)NCc1cccs1 (centres undefined),,inactive: -13.6%,
COc1ccc(NC(=O)c2c(C)oc3ccc(O)c(CN4CCN(Cc5ccccc5)CC4)c23)cc1Cl,"inconclusive: 1.12 µM [inhibitor, single point]",,
CCCCNC(=O)c1cccc2c1CCN2S(=O)(=O)c1ccccc1,"inconclusive: 17.8 µM [inhibitor, single point]",,
Cn1cnc2cc(NC(=O)C[C@H]3NC(=O)c4ccccc4NC3=O)ccc21,,inactive: -21.6%,
O=C(NCc1ccccc1)C1COC2(CCN(C(=O)c3cccs3)CC2)N1C(=O)c1ccccc1 (centres undefined),"inconclusive: 12.6 µM [inhibitor, single point]",,
CCCCN(CCCC)CCNC(=O)CN1C(=O)CSc2ccc(S(=O)(=O)N3CCOCC3)cc21,"inconclusive: 10 µM [inhibitor, partial curve, poor fit]",,
O=C(c1ccccc1)N1Cc2ccccc2CC2(CCN(Cc3ccccn3)C2)C1 (centres undefined),"inconclusive: 0.447 µM [inhibitor, full curve, poor fit]",,
COc1ccccc1OCC(=O)NC1CC(=O)N(c2ccc3c(c2)OCCO3)C1 (centres undefined),,inactive: 16.1%,
O=C(COc1ccc(F)cc1)N1CCC2(CC1)CC(OCC1CC1)CCO2 (centres undefined),,,inactive
CC(=O)NCCC(=O)N1Cc2ccccc2CC2(CCCN2CC2CCCCC2)C1 (centres undefined),active: 8.91 µM,,
COc1ccc(-c2cc3nc(C)c(CCC(=O)N4CCN(c5ccc(F)cc5)CC4)c(C)n3n2)c(OC)c1,active: 10 µM,,
c1cc2nc(C3CCCNC3)[nH]c2cn1 (centres undefined),inactive,,
Cc1ccc(N2CCN(C(=O)c3cnn(-c4ccc(F)cc4F)c3C3CCN(C(=O)OC(C)(C)C)CC3)CC2)c(C)c1,active: 7.94 µM,,
O=C(Cc1cccs1)N1CCCN(c2cc(-c3ccc(Br)cc3)[nH]n2)CC1,"inconclusive: 4.47 µM [inhibitor, partial curve, poor fit]",,
N#Cc1cccc(S(=O)(=O)N2CCc3n[nH]c(=O)n3CC2)c1,,,inactive
O=C1OCC2(CCN(Cc3ccccc3O)C2)N1Cc1ccccc1 (centres undefined),active: 10 µM,,
COc1cc(OC)c(N(C)C(=O)c2cn(C3CCCC3)c(=O)c3c2c2ccccc2n3C)cc1Cl,"inconclusive: 17.8 µM [inhibitor, single point]",,
O=C(Nc1cccc(C(F)(F)F)c1)N1CC2CCCN2c2ccccc21 (centres undefined),"inconclusive: 17.8 µM [inhibitor, single point]",,
O=C(c1ccccc1)N1CCC2(CC1)CC(N(Cc1ccc(F)cc1)C1CC1)CCO2 (centres undefined),active: 7.94 µM,,
CCOC(=O)c1c(C)n(-c2ccccc2)c2ccc(OC(=O)c3cccc(C)c3)cc12,"inconclusive: 3.16 µM [inhibitor, full curve]",,
COC[C@@H]1[C@H](NC(=O)c2ccc(-n3cccn3)cc2)[C@@H]2CCO[C@H]12,"inconclusive: 3.16 µM [inhibitor, single point]",,

Compound,Potency,"activity, negative = inhibition",outcome
Cc1nn(-c2ccc(C(F)(F)F)cc2)c(C)c1[C@@H]1C=C[C@@H](NCc2ccc(N(C)C)cc2)C1,"inconclusive: 10 µM [inhibitor, single point]",,
CC1CCN(S(=O)(=O)c2ccc3c(c2)c(=O)c(C(=O)NC(C)c2ccccc2)cn3C)CC1 (centres undefined),"inconclusive: 10 µM [inhibitor, single point]",,
Cc1ccc(-c2nnc(Nc3cccc(O)c3)c3ccccc23)cc1S(=O)(=O)NCC1CCCO1 (centres undefined),"inconclusive: 6.31 µM [inhibitor, partial curve, poor fit]",,
COc1cccc(CNC(=O)[C@@H]2C[C@@H](O)CN2C2CCN(C(=O)Cc3ccc(C)cc3)CC2)c1,"inconclusive: 17.8 µM [inhibitor, single point]",,
Cc1ccc(Cl)cc1N1CCN(C(=O)c2ccc3c(c2)CCN3S(=O)(=O)c2ccccc2)CC1,"inconclusive: 17.8 µM [inhibitor, single point]",,
CCn1nccc1C(=O)N1CCCCCCNC(=O)[C@@H]2C[C@@H](c3nc(Cc4ccccc4)no3)C[C@@H]21,,inactive: -20.3%,
O=C1CCCN1CCN1CCOc2c(O)cc(-c3csc4ccccc34)cc2C1,active: 11.2 µM,,
COc1ccc2[nH]c(C[C@@H]3C[C@@H](C(C)C)[C@H](CNC(=O)c4cccnc4)C=C3C)nc2n1,active: 11.2 µM,,
O=C(NCc1ccccc1Cl)c1ccc2c(c1)N(Cc1ccccc1)C(=O)CS2,"inconclusive: 11.2 µM [inhibitor, single point]",,
C#CCNC(=O)[C@@H]1Cc2cn(Cc3cccnc3)c3cccc(c23)[C@H](CC(C)C)N1,"inconclusive: 10 µM [inhibitor, partial curve, poor fit]",,
CC(C)NC(=O)C(NC(=O)c1ccc2c(c1)OCO2)C1CCN(C(=O)c2ccc(F)cc2)CC1 (centres undefined),,inactive: -12.5%,
CCNC(=O)N1CCc2cc(OC)c(OC)cc2C1CNC(=O)c1ccc(C)cc1 (centres undefined),"inconclusive: 11.2 µM [inhibitor, partial curve, poor fit]",,
CC(C)CCN1C(=O)CC[C@]2(C(=O)NCc3cccnc3)CCCC[C@@H]12,,inactive: 26.5%,
CCOc1cc(C(=O)Nc2cccc3cccnc23)cc(OCC)c1OCC,"inconclusive: 17.8 µM [inhibitor, partial curve, poor fit]",,
COc1cccc(Nc2sc(C(=O)c3ccc(Cl)cc3)c(N)c2C(=O)NCc2ccc(C)cc2)c1,"inconclusive: 11.2 µM [inhibitor, single point]",,
CCN(CC)Cc1nc(C2(O)CCN(C3CCC3)CC2)cs1,"inconclusive: 10 µM [inhibitor, partial curve]",,
CCOC(=O)CN(Cc1ccccc1)C(C(=O)NC1CCCCC1)c1ccc(OC)cc1 (centres undefined),"inconclusive: 11.2 µM [inhibitor, single point]",,
O=C(NCCc1ccccc1)C1CCN(Cc2cc3ccccc3n2Cc2cccc(Cl)c2)CC1,"inconclusive: 17.8 µM [inhibitor, single point]",,
O=C(NCC1Cn2cccc2CN1Cc1ccccc1)c1ccsc1 (centres undefined),"inconclusive: 17.8 µM [inhibitor, single point]",,
O=C(NC[C@H]1Cn2c(-c3ccc4c(c3)OCCO4)cnc2CO1)Nc1ccccc1,"inconclusive: 12.6 µM [inhibitor, single point]",,
O=C(NCCc1ccccc1)c1ccc2c(c1)N(Cc1ccccc1)C(=O)c1ccccc1S2(=O)=O,"inconclusive: 17.8 µM [inhibitor, single point]",,
Cc1cnc(CCNC(=O)Nc2ccc3c(c2)OCCO3)n1C1CCC1,active: 5.01 µM,,

Compound,Potency,"activity, negative = inhibition",outcome
COc1ccnc(N2C[C@@H]3OCC(=O)N(CC4CC4)[C@@H]3C2)n1,,,inactive [at 44.1 µM]
Cn1cc(CN2CC3(COCC(=O)N(Cc4cccc(OC(F)(F)F)c4)C3)C2)cn1,"inconclusive: 5.62 µM [inhibitor, partial curve, poor fit]",,
O=C1Nc2ccccc2C12CCN([S+](=O)([O-])c1ccsc1)CC2,,inactive: -3.14%,
CC(C)COc1ccc(C(=O)N2CCCCC2CCN2CCCCC2)cc1 (centres undefined),"inconclusive: 17.8 µM [inhibitor, single point]",,
CCC(=O)N1CCCC(c2nc(-c3ccccc3)no2)CCNC(=O)CC1 (centres undefined),,inactive: 30.8%,
CCc1cccc(NC(=O)N2CCc3c(c4cc(F)ccc4n3C)C2)c1,"inconclusive: 0.398 µM [inhibitor, full curve]",,
Cc1ccc(-c2cc(N3CCC(CNC(=O)c4n[nH]c5c4CCCC5)CC3)n[nH]2)cc1,"inconclusive: 3.98 µM [inhibitor, single point]",,
CCC(c1cccs1)N1C(=O)[C@H]2CN(S(=O)(=O)c3cccc(Cl)c3)C[C@H]2C1=O (some centres undefined),"inconclusive: 20 µM [inhibitor, partial curve, poor fit]",,
COc1ccccc1CCC(=O)NC1CCc2nn(CC3CC3)c(=O)n2CC1 (centres undefined),,inactive: -18.3%,
COCc1nc2nc(-c3ccccc3)c(-c3ccc(OC)cc3)cc2n1C,,,inactive [at 44.1 µM]
COCCN(C)C(=O)c1cn2cc(-c3ccc(F)cc3)n(CC=C(C)C)c(=O)c2n1,"inconclusive: 7.94 µM [inhibitor, partial curve, poor fit]",,
COc1ncccc1-c1cc(C(=O)N(C)CCN(C)C)c2c(c1)ncn2C,,inactive: 17.5% [at 44.1 µM],
CCc1ccc(C2=C(C)C(N3CCC(C(=O)NCc4ccccc4)CC3)=NS2(=O)=O)cc1,,inactive: 3.28%,
COc1cccc(NC(=O)CCc2c(C)nc3nc(CNC(=O)c4cccc(F)c4)nn3c2C)c1,"inconclusive: 20 µM [inhibitor, single point]",,
Cc1ccc(Cl)cc1N1CCN(C(=O)c2c(C)oc3ncnc(N4CCCCC4)c23)CC1,"inconclusive: 11.2 µM [inhibitor, single point]",,
COCC1CN(C2CCC2)CC12CCN(C(=O)NCc1ccc(F)cc1)CC2 (centres undefined),"inconclusive: 5.01 µM [inhibitor, partial curve, poor fit]",,
CC1=C[C@@H](CNC(=O)COCC(=O)O)[C@H](C(C)C)C[C@H]1Cc1nc2c(C)cccc2[nH]1,"inconclusive: 6.31 µM [inhibitor, partial curve, poor fit]",,
CCc1ccc(CN2CCc3nc(N4CCN(c5ccccc5F)CC4)ncc3C2)cc1,active: 8.91 µM,,
Cc1ccc(Cn2c(C3CCN(C(=O)Cc4ccccc4)CC3)n[nH]c2=O)cc1,"inconclusive: 11.2 µM [inhibitor, partial curve, poor fit]",,
Cc1ccsc1CN(C(=O)c1oc2ccc(Br)cc2c1C)C1CCS(=O)(=O)C1 (centres undefined),"inconclusive: 17.8 µM [inhibitor, single point]",,
